Test results: the RNAGym collection of RNA variant scans (doi:10.1093/nar/gkz1192)
Read counts are not given, so values of variants with three or more changes are uncertain.

B1: CPEB3 Ribozyme (parent)
chain: UAACAGGGGGCCACAGCAGAAGCGUUCACGUCGCAGCCCCUGUCAGAUUCUGGUGAAUCUGCGAAUUCUGCUGUAUAUCUC

Variants of: B1
Assay: self-cleavage, relative activity (ratio to wild type); higher = more cleavage; in vitro, sequencing
Outline: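 Relative activity compares each variant's cleaved/total read fraction with that of the unmutated ribozyme. To get these fractions, barcoded CPEB3 ribozyme libraries from rounds of error-prone PCR were transcribed with T7 RNA polymerase for 5 hours at 37°C and then given 15 min of DNase I treatment before EDTA was added. The RNAs were reverse transcribed with template switching and sequenced on Illumina, and DNA sequencing linked barcodes to variants. A minimum of 5 reads applied, and three batches were averaged.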

**Q.** With UGACAGGGGGCCACAGCAGAAGCGUUCACGUCCCAGCCCCCGACAGAUUCUGGUGAAUCUGCGAAUUCCGCCGUAUAUCUC [A2G G33C U41C U43A U69C U72C] as the variant, how does the self-cleavage read?
**A.** 0.06

**Q.** With UGACAGGGGGCCACAGCAGAAGCGUUCACGUCGCAUCCCCUGUCAGAUUCAGGUGAAUCUGCGAAUUCUGCUGUAUAUCUC [A2G G36U U51A] as the variant, how does the self-cleavage read?
**A.** 0.07

**Q.** For UGACAGGGGGCCACAGCAGAAGCGUUCACGUCGCAGCCCCUGUCAGAUUCUAGUGAAUCUGCGAAUUCGGCUGUAUAUCUC [A2G G52A U69G], which self-cleavage is on record?
**A.** 0.44

**Q.** Which self-cleavage does the source give for UGACAGGGGGCCACAGCAGAAGCGAUCACGUCGCAGCCCCCGUCAGAUUCUGGUGAAACUGCGAAUUCUGCCGUAUAACUC [A2G U25A U41C U58A U72C U78A] here?
**A.** 0.06

**Q.** With UGACAGGGGGCCACAGCAGAAGCGCUCUCGUCGCAGCCCCUGUCAGAUUCUGGUGAAUCUGCGAAUUCUGCUGCAUAUCUC [A2G U25C A28U U74C] as the variant, how does the self-cleavage read?
**A.** 0.53

**Q.** Which self-cleavage does the source give for UGACAGGGGGCCACAGCAGAAGCGCUCACGUCGCAGCCCCUGUCGUAUACUGGUGAAUCUGCGAAUCCUGCUGUAUAACUC [A2G U25C A45G G46U U49A U67C U78A] here?
**A.** 0.19

**Q.** Which self-cleavage does the source give for UGACAGGGGGCCACAGCAGAAGCGCUCACGUCGCAGCCCCUGUCGGAUACUGGUGAAUCUGCGAAUCCUGCUGUAUAACUC [A2G U25C A45G U49A U67C U78A] here?
**A.** 0.22

**Q.** For UGACAGGGGGCCACAGCAGAAGCGCUCACGUCGCAGCCCCUGUCAGAUUCUGGUGAAUCUGCGAAUUCUGCUGUAUAUCUA [A2G U25C C81A], which self-cleavage is on record?
**A.** 0.6

**Q.** Which self-cleavage does the source give for UGACAGGGGGCCACAGCAGAAGCGCUCACGUCGCAGCCCCAGUCAGAUUCUGGUGAAUCUGCGAAUUCUGCUGUAUAUCUC [A2G U25C U41A] here?
**A.** 0.45

**Q.** Which self-cleavage does the source give for UGACAGGGGGCCACAGCAGAAGCGUACACGCCGCAGCCCCUGUCAGGUUCUGGUGAAUCUGCGAAUUCUGCUGUAUAUCUC [A2G U26A U31C A47G] here?
**A.** 0.37

**Q.** Which self-cleavage does the source give for UGACAGGGGGCCACAGCAGAAGCGUACACGUCGCAGCCCCUGUCAGAUUCUGGAGAAUCUGCGAAUUCUGCUGUGUAUCUC [A2G U26A U54A A75G] here?
**A.** 0.3

**Q.** With UGACAGGGGGCCACAGCAGAAGCGUCCCCGUCGCAGCCCCUGUCAGAUUCCGGUGAAUCUGCGAUUCCUGCUGUUUAUCUC [A2G U26C A28C U51C A65U U67C A75U] as the variant, how does the self-cleavage read?
**A.** 0.08

**Q.** For UGACAGGGGGCCACAGCAGAAGCGUCCACGUCGCAGCCCCUGUCAGAUUCUGGUGAAUCUGCGGAUUCUGUUGUAUAUCCC [A2G U26C A64G C71U U80C], which self-cleavage is on record?
**A.** 0.32

**Q.** With UGACAGGGGGCCACAGCAGAAGCGUCCACGUCGCAGCCCCUGUCAGAUUCUGGUGAAUCUGCGAAUUCUGCUGUGUAUCUC [A2G U26C A75G] as the variant, how does the self-cleavage read?
**A.** 0.2

**Q.** For UGACAGGGGGCCACAGCAGAAGCGUCCACGUCGGAGCCCCUGUCAGGUUCUGGUGAAUCUGCGAAUUCUGCUGUAUAUCUC [A2G U26C C34G A47G], which self-cleavage is on record?
**A.** 0.44

**Q.** For UGACAGGGGGCCACAGCAGAAGCGUCCACGUCGCAGCCUCUGCCAGAUUCUGGUGAAUCUGCGAAUUCUGCUGUAUACCCC [A2G U26C C39U U43C U78C U80C], which self-cleavage is on record?
**A.** 0.04

**Q.** With UGACAGGGGGCCACAGCAGAAGCGUCCACGUCGCAGCCCCUGUCACUUCCUGGUGAACCUGCGAAUUCUGCUGUAUAUCCC [A2G U26C G46C A47U U49C U58C U80C] as the variant, how does the self-cleavage read?
**A.** 0.04

**Q.** With UGACAGGGGGCCACAGCAGAAGCGUCCACGUCGCAGCCCCUGUCAGAUUCUGGCGAAUCUGCGAAUUCUGCUGUAUAUCUC [A2G U26C U54C] as the variant, how does the self-cleavage read?
**A.** 0.32

**Q.** With UGACAGGGGGCCACAGCAGAAGCGUCCACGUCGCAGCCCCUGUCAGAUUCUGGCGUAUCUGCGAAUUCUGCUGUAUAUCCC [A2G U26C U54C A56U U80C] as the variant, how does the self-cleavage read?
**A.** 0.16

**Q.** For UGACAGGGGGCCACAGCAGAAGCGUUCACGACGCAGCCCCUGCCAGAUUCUGGUGAAUCUGCGAAUUCUGCUGUAUAUCUC [A2G U31A U43C], which self-cleavage is on record?
**A.** 0.39

**Q.** For UGACAGGGGGCCACAGCAGAAGCGUUCACGACGCAGCCCCUGUCAGAUUCUGGUGAAUCUGCGAAUCCUGCUGUAUAUCUC [A2G U31A U67C], which self-cleavage is on record?
**A.** 0.3

**Q.** For UGACAGGGGGCCACAGCAGAAGCGUUCACGACGCAGCCCCUGUCAGAUUCUGGUGAAUCUGCGAAUUCUGCUGUAUAUCCC [A2G U31A U80C], which self-cleavage is on record?
**A.** 0.5

**Q.** Which self-cleavage does the source give for UGACAGGGGGCCACAGCAGAAGCGUUCACGCCGCAGCCCCUGUCAGUUUCUGGUGAAUCUGCGAAUUCUGCUGUACAUCUC [A2G U31C A47U U76C] here?
**A.** 0.27

**Q.** Which self-cleavage does the source give for UGACAGGGGGCCACAGCAGAAGCGUUCACGCCGCAGCCCCUGCCAGAUUCUGGUGAAUCUGCGAAUUCUGCUGUAUAUCUC [A2G U31C U43C] here?
**A.** 0.19

**Q.** With UGACAGGGGGCCACAGCAGAAGCGUUCACGUCGCAGCCCCAGUCAGGUUCAAGUGAAUCUGCGAAUUCUGCUGUAUAUCUC [A2G U41A A47G U51A G52A] as the variant, how does the self-cleavage read?
**A.** 0.11

**Q.** For UGACAGGGGGCCACAGCAGAAGCGUUCACGUCGCAGCCCCAGUCAGAUUCUGGUGAAUCUGCGUAUUCGGCUGUACAUCCC [A2G U41A A64U U69G U76C U80C], which self-cleavage is on record?
**A.** 0.36

**Q.** Which self-cleavage does the source give for UGACAGGGGGCCACAGCAGAAGCGUUCACGUCGCAGCCCCAGUCAGAUCCUGGUGAGUCUGCGAAUUCUGCAGUAAAUCUC [A2G U41A U49C A57G U72A U76A] here?
**A.** 0.04

**Q.** With UGACAGGGGGCCACAGCAGAAGCGUUCACGUCGCAGCCCCAGUCAGAUUCUGGUGAAUCUGCGAAUUCUGCAGUAUAUCUC [A2G U41A U72A] as the variant, how does the self-cleavage read?
**A.** 0.37

**Q.** For UGACAGGGGGCCACAGCAGAAGCGUUCACGUCGCAGCCCCCGUCAGAUUCUGGUGGAUCAGCGAAUUCUGCUGUAUACCUC [A2G U41C A56G U60A U78C], which self-cleavage is on record?
**A.** 0.16

**Q.** For UGACAGGGGGCCACAGCAGAAGCGUUCACGUCGCAGCCCCCGUCAGAUACUGGUGAAUCUGCGAAUUCUGCUGUAUAUCUC [A2G U41C U49A], which self-cleavage is on record?
**A.** 0.17

**Q.** For UGACAGGGGGCCACAGCAGAAGCGUUCACGUCGCAGCCCCUGACAGAUUCUGGUGGAUCUGCGAAUUCUGCUGUAUAUCUC [A2G U43A A56G], which self-cleavage is on record?
**A.** 0.76

**Q.** Which self-cleavage does the source give for UGACAGGGGGCCACAGCAGAAGCGUUCACGUCGCAGCCCCUGCCAGAUUCUGGUGAGUCUGCGAAUUCUGCUGUAUAUCUC [A2G U43C A57G] here?
**A.** 0.36

**Q.** With UGACAGGGGGCCACAGCAGAAGCGUUCACGUCGCAGCCCCUGCCAAAUUCUGGCGAAUCUGCGAAUUCUGCUGUAUAUCUC [A2G U43C G46A U54C] as the variant, how does the self-cleavage read?
**A.** 0.1

**Q.** Which self-cleavage does the source give for UGACAGGGGGCCACAGCAGAAGCGUUCACGUCGCAGCCCCUGCCAGAUUCAGGUGAAUCUGCGAAAUCUGCUGUAUAUCUC [A2G U43C U51A U66A] here?
**A.** 0.22
